From the supplement of paper PMC12355420
Counter-ions that a name gives are not always drawn. The list shows a part of the results. No stated cut-off is given here; in the data, active = 0.5 or less and inactive = the rest. Repeats are few or missing, and single values can be far off.

Columns and labels:
Settings in all cases: 50 µM; 24 h
[1] = test system: HeLa VPS33A reporter cells; assay: relative cell viability (CellMask signal) vs DMSO (fraction of DMSO); higher = less cytotoxic;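 further: primary screen of an FDA-approved drug library in HeLa reporter cells in 96-well format, CellMask signal normalized to DMSO-treated wells set as 1, under 0.5 deemed highly cytotoxic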
[2] = test system: HeLa VPS33A R498W KI + HA-SDC1-FLAG; assay: relative GAG core protein HA-SDC1 amount per cell number vs DMSO (fraction of DMSO); higher = more SDC1 (GAG core protein);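 further: HA-SDC1 level read out by In-Cell Western staining with an anti-HA antibody against the N-terminal tag, screening FDA-approved library drugs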
[3] = test system: HeLa VPS33A KO + NLuc-VPS33A R498W; assay: relative mutant VPS33A R498W amount (NanoLuc luminescence) vs DMSO (fraction of DMSO); HeLa model of a glycosaminoglycan (GAG) storage disease; KI is knock-in and KO knock-out; SDC1 is syndecan 1; higher = higher mutant VPS33A level;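 further: screen of an FDA-approved drug library, NanoLuc luminescence read after lysing the treated cells, taken as a measure of mutant VPS33A protein stability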

SMILES | relative cell viability [1] | relative GAG core protein HA-SDC1 amount per cell number [2] | relative mutant VPS33A R498W amount [3]
Clc1ccc(C(Cn2ccnc2)OCc2ccsc2Cl)c(Cl)c1 (stereo unspecified) [Tioconazole] | 1.18 | active: 0.354 | 0.864
OCC1=C[C@@H](O)[C@@H]2C=CO[C@@H](O[C@@H]3O[C@H](CO)[C@@H](O)[C@H](O)[C@H]3O)[C@H]12 [Aucubin] | 0.96 | inactive: 0.752 | 1.28
O=C(CCCN1CCN(c2ccccn2)CC1)c1ccc(F)cc1 [Azaperone] | 1.14 | inactive: 1.12 | 1.15
COc1cc(/C=C/C(=O)O)ccc1O [Fumalic acid] | 1.04 | inactive: 0.86 | 1.05
COc1ccc(OC)c(C(O)CNC(=O)CN)c1 (stereo unspecified) [Midodrine (hydrochloride)] | 0.979 | inactive: 0.832 | 1.64
CN(C)CCc1c[nH]c2ccc(C[C@H]3COC(=O)N3)cc12 [Zolmitriptan] | 0.987 | inactive: 0.78 | 1.65
CC1(C)S[C@@H]2[C@H](NC(=O)[C@H](N)c3ccc(O)cc3)C(=O)N2[C@H]1C(=O)O [Amoxicillin trihydrate] | 0.983 | inactive: 0.808 | 1.24
Oc1ccc([C@H]2COc3cc(O)ccc3C2)cc1 [Equol] | 1.32 | inactive: 0.908 | 0.941
N[C@@H](Cc1c[nH]c2ccccc12)C(=O)O [L-Tryptophan] | 1.03 | inactive: 0.586 | 1.28
CC(C)(C#N)c1cc(Cn2cncn2)cc(C(C)(C)C#N)c1 [Anastrozole] | 1.17 | inactive: 1.04 | 1.32
Cc1cc(C#N)cc(C)c1Oc1nc(Nc2ccc(C#N)cc2)nc(N)c1Br [Etravirine (TMC125)] | 1.12 | inactive: 0.911 | 1.43
COC(=O)C1=C(C)NC(C)=C(C(=O)OC)C1c1ccccc1[N+](=O)[O-] [Nifedipine] | 0.745 | active: 0.178 | 2.47
COC(=O)N(C)c1c(N)nc(-c2nn(Cc3ccccc3F)c3ncccc23)nc1N [Riociguat] | 1.01 | inactive: 1.21 | 0.943
CC(C)(C)OC(=O)N[C@H]1CCCCC/C=C\[C@@H]2C[C@@]2(C(=O)NS(=O)(=O)C2CC2)NC(=O)[C@@H]2C[C@@H](OC(=O)N3Cc4cccc(F)c4C3)CN2C1=O [Danoprevir (RG7227)] | 0.619 | inactive: 0.583 | 0.881
Nc1ccn([C@@H]2CS[C@H](CO)O2)c(=O)n1 [Lamivudine] | 1.11 | inactive: 1.26 | 0.937
O=C1C(CC[S+]([O-])c2ccccc2)C(=O)N(c2ccccc2)N1c1ccccc1 (racemic) [(+/-)-Sulfinpyrazone] | 1.13 | inactive: 0.863 | 0.97
C[N+](C)(C)CCOC(N)=O [Carbamoylcholine chloride] | 1.25 | inactive: 0.674 | 1.09
CCCNC(C)C(=O)Nc1c(C)csc1C(=O)OC (stereo unspecified) [Articaine HCl] | 1.11 | inactive: 0.778 | 1.25
NCC(=O)O [Glycine] | 1.02 | inactive: 1.01 | 1.05

SMILES | relative cell viability [1] | relative GAG core protein HA-SDC1 amount per cell number [2] | relative mutant VPS33A R498W amount [3]
O=C(O)/C=C(/CC(=O)O)C(=O)O [cis-aconitate] | 0.982 | inactive: 0.924 | 1.38
COC(=O)C1=CO[C@@H](O[C@@H]2O[C@H](CO)[C@@H](O)[C@H](O)[C@H]2O)[C@@H]2[C@@H](C)[C@@H](O)C[C@H]12 [Loganin] | 1.01 | inactive: 0.856 | 1.33
c1ccc(C2CN3CCSC3=N2)cc1 (single isomer, unassigned; (-)) [(-)-Tetramisole] | 0.865 | inactive: 1.17 | 1.17
C=C1CC[C@@H]2[C@](C)(CO)[C@H](O)CC[C@@]2(C)[C@@H]1C/C=C1/C(=O)OC[C@H]1O [Andrographolide] | 0.827 | active: 0.326 | 2.16
O=C(O)[C@@H]1CCCN1 [L-Proline] | 0.978 | inactive: 0.984 | 1.03
Cc1oc(=O)oc1CN1CCN(c2cc3c(cc2F)c(=O)c(C(=O)O)c2n3C(C)S2)CC1 (stereo unspecified) [Prulifloxacin (Pruvel)] | 0.957 | inactive: 0.692 | 0.854
CNC(=O)c1cc(Oc2ccc(NC(=O)Nc3ccc(Cl)c(C(F)(F)F)c3)c(F)c2)ccn1 [Regorafenib] | 0.968 | active: 0.496 | 0.162
CN(CCOc1ccc(CC2SC(=O)NC2=O)cc1)c1ccccn1 (stereo unspecified) [Rosiglitazone] | 1.29 | inactive: 1.12 | 0.476
C=C1/C(=C\C=C2/CCC[C@]3(C)[C@@H]([C@H](C)CCCC(C)(C)O)CC[C@@H]23)C[C@@H](O)C[C@@H]1O [Calcitriol] | 0.957 | inactive: 0.809 | 1.5
CN1CCC(=C2c3ccccc3CCn3c(C=O)cnc32)CC1 [Alcaftadine] | 0.958 | inactive: 0.884 | 1.17
O=C1OCCN1/N=C/c1ccc([N+](=O)[O-])o1 [Furazolidone] | 1.01 | inactive: 0.524 | 1.2
O=C1Nc2ccccc2C1=O [Isatin] | 1.07 | inactive: 1.13 | 1.55
Cc1ccc(-n2nc(C(C)(C)C)cc2NC(=O)Nc2ccc(OCCN3CCOCC3)c3ccccc23)cc1 [BIRB 796 (Doramapimod)] | 0.961 | inactive: 0.685 | 0.236
CC(C)(C)NCC(O)c1cc(O)cc(O)c1 (stereo unspecified) [Terbutaline Sulfate] | 1.19 | inactive: 1.31 | 0.865
NC12CC3CC(CC(C3)C1)C2 [Amantadine HCl] | 1.05 | inactive: 1.36 | 1.74
O=C(O)c1cc(=O)[nH]c(=O)[nH]1 [Orotic acid] | 1.36 | inactive: 0.816 | 0.798
Cc1nc(Nc2ncc(C(=O)Nc3c(C)cccc3Cl)s2)cc(N2CCN(CCO)CC2)n1 [Dasatinib Monohydrate] | 1.04 | active: 0.423 | 0.0581
CN(C)c1cc(NC(=O)CNC(C)(C)C)c(O)c2c1C[C@H]1C[C@H]3[C@H](N(C)C)C(=O)C(C(N)=O)=C(O)[C@@]3(O)C(=O)C1=C2O [Tigecycline] | 0.985 | inactive: 1.04 | 1.26
O=C(O)P(=O)(O)O [Foscarnet Sodium] | 1.07 | inactive: 0.939 | 0.873

SMILES | relative cell viability [1] | relative GAG core protein HA-SDC1 amount per cell number [2] | relative mutant VPS33A R498W amount [3]
CC(=O)Nc1cccc(-n2c(=O)n(C3CC3)c(=O)c3c(Nc4ccc(I)cc4F)n(C)c(=O)c(C)c32)c1 | 1.08 | inactive: 1.07 | 1.16
COCCOC(=O)C1=C(C)NC(C)=C(C(=O)OC(C)C)C1c1cccc([N+](=O)[O-])c1 (stereo unspecified) [Nimodipine] | 1.08 | inactive: 1.26 | 0.259
COc1cc([C@@H]2c3cc4c(cc3[C@@H](O[C@@H]3O[C@@H]5CO[C@@H](C)O[C@H]5[C@H](O)[C@H]3O)[C@H]3COC(=O)[C@H]23)OCO4)cc(OC)c1O [Etoposide] | 1.03 | active: 0.355 | 5.2
C=C[C@]1(C)C[C@@H](OC(=O)CS[C@@H]2C[C@H]3CC[C@@H](C2)N3C)[C@]2(C)[C@H](C)CC[C@]3(CCC(=O)[C@H]32)[C@@H](C)[C@@H]1O [Retapamulin] | 0.937 | active: 0.451 | 1.11
CC[C@H](C)C(=O)O[C@H]1C[C@@H](C)C=C2C=C[C@H](C)[C@H](CC[C@@H]3C[C@@H](O)CC(=O)O3)[C@H]21 [Lovastatin] | 0.792 | inactive: 0.636 | 3.47
c1c[nH]cn1 [Imidazole] | 1.06 | inactive: 1.05 | 1.11
CCCCCCCCCCC[C@@H](C[C@@H]1OC(=O)[C@H]1CCCCCC)OC(=O)[C@H](CC(C)C)NC=O [Orlistat] | 1.13 | inactive: 1.17 | 0.562
CC1(C)O[C@@H]2C[C@H]3[C@@H]4CCC5=CC(=O)C=C[C@]5(C)[C@H]4[C@@H](O)C[C@]3(C)[C@]2(C(=O)CO)O1 [Desonide] | 1.07 | inactive: 0.856 | 1.05
CC(C)(Oc1ccc(C2CC2(Cl)Cl)cc1)C(=O)O (stereo unspecified) [Ciprofibrate] | 1.22 | inactive: 0.998 | 1.15
C[C@]12C[C@H](O)[C@H]3[C@@H](CCC4=CC(=O)CC[C@@]43C)[C@@H]1CC[C@@H]2C(=O)CO [Corticosterone] | 1.07 | inactive: 0.948 | 1.01
COc1cc(O)c2c(c1)oc(=O)c1c3cc(O)c(O)cc3oc21 [Wedelolactone] | 0.723 | active: 0.183 | 1.38
C/C=C\c1ccc(OC)cc1 [cis-Anethol] | 0.853 | inactive: 0.557 | 0.755
O=C1[C@H](CC[C@H](O)c2ccc(F)cc2)[C@@H](c2ccc(O)cc2)N1c1ccc(F)cc1 [Ezetimibe] | 1.05 | active: 0.433 | 0.559
N[C@@H]1CN(c2c(F)cc3c(=O)c(C(=O)O)cn([C@@H]4C[C@@H]4F)c3c2Cl)CC12CC2 [Sitafloxacin Hydrate] | 1.02 | inactive: 0.794 | 2.25
C[C@H](N)C(=O)O [L-Alanine] | 1.03 | inactive: 0.993 | 1.09
COc1ccc2cc([C@H](C)C(=O)O)ccc2c1 [(S)-Naproxen] | 0.902 | inactive: 0.873 | 1.25
Cc1onc(-c2ccccc2Cl)c1C(=O)N[C@@H]1C(=O)N2[C@@H]1SC(C)(C)[C@@H]2C(=O)O [Cloxacillin Sodium] | 1.03 | inactive: 0.965 | 1.96
COc1ccccc1OCC(O)CN1CCN(CC(=O)Nc2c(C)cccc2C)CC1 (stereo unspecified) [Ranolazine] | 1.05 | inactive: 1.09 | 0.862
CC(C(=O)O)c1ccc2c(c1)Cc1cccnc1O2 (stereo unspecified) [Pranoprofen] | 1.04 | inactive: 0.899 | 1.14
